Assay results taken from the supplement of paper PMC7125110.
± gives the standard error. Variants at the floor of the assay are shown more often than the library holds them.

B1: glmS ribozyme (parent)
chain: AUAAAAGCGCCAGAACUACAGAAAUGUAGUUGACGAGGAGGAGGUUUAUCGAAUUUUCGGCGGAUGCCUCCAAA

Columns and labels:
Conditions in all cases: with glucosamine-6-phosphate
[1] = variants of: B1; test: self-cleavage kobs at 640 uM GlcN6P; higher = faster cleavage; RNA array
How it was run: (§1)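 Tiles of sequenced MiSeq chips were imaged over ~14 h at 37 °C. On them, barcoded ribozyme variants had been transcribed in situ by E. coli RNA polymerase and were tracked via a hybridised Cy3 probe while glucosamine-6-phosphate (40 μM to 10 mM) in HEPES/KCl/Mg(OAc)2 buffer flowed in. Per-tile medians, normalised to baseline and to non-cleaving reference variants, were fit to one- or two-exponential decays for kobs, and weighted Michaelis–Menten fits gave kcat and KM.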

[2] = variants of: B1; test: self-cleavage kobs at 2500 uM GlcN6P; higher = faster cleavage; RNA array
How it was run: as §1

[3] = variants of: B1; test: self-cleavage kobs at 10000 uM GlcN6P; higher = faster cleavage; RNA array
How it was run: as §1

[4] = variants of: B1; test: self-cleavage kobs at 160 uM GlcN6P; higher = faster cleavage; RNA array
How it was run: as §1

Variant	self-cleavage kobs at 640 uM GlcN6P [1] [s⁻¹]	self-cleavage kobs at 2500 uM GlcN6P [2] [s⁻¹]	self-cleavage kobs at 10000 uM GlcN6P [3] [s⁻¹]	self-cleavage kobs at 160 uM GlcN6P [4] [s⁻¹]
U47A C58U U65C	< 1e-05			
A52C G62A	< 1e-05	< 1e-05		
G38C G62A	< 1e-05			
G44A A52G U56G C70G	< 1e-05	< 1e-05	< 1e-05	
U45A U49C	< 1e-05		< 1e-05	
A39G G43C	< 1e-05			
G40U U47G U49G A53U U54A G62U	< 1e-05	< 1e-05		< 1e-05
G40U G60A	< 1e-05		< 1e-05	< 1e-05
A39U A52G	0.000134 ± 1.3e-05	0.000345 ± 5.5e-05	0.00078 ± 5.8e-05	5.2e-05 ± 1.4e-05
G44U G51A U65A	< 1e-05	< 1e-05	< 1e-05	
C58A G59A	< 1e-05			< 1e-05
G43C G60A	< 1e-05	< 1e-05	< 1e-05	< 1e-05
U46A U47A A48C C67U C70G	< 1e-05	< 1e-05		< 1e-05
G43U U47C G66U	< 1e-05			
U47G C68A	0.000121 ± 2.4e-05	9.07e-05 ± 1.6e-05	3.58e-05 ± 1.2e-05	4.97e-05 ± 2e-05
G41U U49C	< 1e-05			< 1e-05
A6G A12U G32U		< 1e-05		< 1e-05
A42G C58A	9.53e-05 ± 3.4e-05	0.000279 ± 0.00013	0.000379 ± 9.4e-05	
A42U G44C A52C U57G U65A U69C	< 1e-05	< 1e-05		
U54A G66A	0.00513 ± 0.00085	0.00986 ± 0.0017		0.00093 ± 0.00023
U46A U54G C70A	5.86e-05 ± 2.1e-05	0.000289 ± 7.5e-05		
G40A G44U C61A	< 1e-05			< 1e-05
G7U A14C G59U C71U				< 1e-05
G37U G38A G59A	< 1e-05			
U57G G66U	< 1e-05			
G41U A42C G66U	< 1e-05	< 1e-05		

Variant	self-cleavage kobs at 640 uM GlcN6P [1] [s⁻¹]	self-cleavage kobs at 2500 uM GlcN6P [2] [s⁻¹]	self-cleavage kobs at 10000 uM GlcN6P [3] [s⁻¹]	self-cleavage kobs at 160 uM GlcN6P [4] [s⁻¹]
G44U G59U G63C	< 1e-05	< 1e-05		
G37U A42C U49C	< 1e-05	< 1e-05		
G59C A64G U69G	< 1e-05			
A39U G41U U47A A52C	< 1e-05	< 1e-05		
G43C G51U C61G	< 1e-05	< 1e-05		
A6U G40U C61A		< 1e-05		< 1e-05
G38C U55A A64C	< 1e-05			
C8A G9A C16G U31C C61G C68U		< 1e-05		< 1e-05
C50U G51U G62A	< 1e-05			
U45C G51U	< 1e-05	< 1e-05		
C8A G13C U30C G41U		< 1e-05	< 1e-05	< 1e-05
G60C C61A U69G	< 1e-05	< 1e-05	< 1e-05	
A6G G7U A14G A33C				< 1e-05
G43A G60C	< 1e-05	< 1e-05	< 1e-05	< 1e-05
G41U G43A C50A A53U U57C A64U U65A	< 1e-05	< 1e-05	< 1e-05	
A6G G40U U65C		< 1e-05		< 1e-05
G37C C58A	< 1e-05		< 1e-05	< 1e-05
A36U U46G U49G	< 1e-05			< 1e-05
G7A U31G A33U C68G		< 1e-05		< 1e-05
A6C U54G		3.94e-05 ± 9.9e-06	7.93e-05 ± 1.1e-05	< 1e-05
C50A G66C	< 1e-05			
G41U U45A G51C C58G	< 1e-05	< 1e-05		
A6U C8G		< 1e-05	< 1e-05	< 1e-05
A6U C8U C70G		< 1e-05		< 1e-05
G44C G63U	< 1e-05	< 1e-05	< 1e-05	
G40A A48G G60C	< 1e-05	< 1e-05		
